Measured values taken from PMC4336329 (PLoS ONE, 2015).
Among all 310,000 compounds or so, about 2,200 (0.71%) showed an effect of 50% or more. Effects have a minus sign here. Some of the results follow.

target: human ether-à-go-go-related gene (hERG) potassium channel (human, UniProt Q12809); assay: primary screen, population patch clamp on CHO cells stably expressing hERG
Sequence (Q12809 whole entry, looked up): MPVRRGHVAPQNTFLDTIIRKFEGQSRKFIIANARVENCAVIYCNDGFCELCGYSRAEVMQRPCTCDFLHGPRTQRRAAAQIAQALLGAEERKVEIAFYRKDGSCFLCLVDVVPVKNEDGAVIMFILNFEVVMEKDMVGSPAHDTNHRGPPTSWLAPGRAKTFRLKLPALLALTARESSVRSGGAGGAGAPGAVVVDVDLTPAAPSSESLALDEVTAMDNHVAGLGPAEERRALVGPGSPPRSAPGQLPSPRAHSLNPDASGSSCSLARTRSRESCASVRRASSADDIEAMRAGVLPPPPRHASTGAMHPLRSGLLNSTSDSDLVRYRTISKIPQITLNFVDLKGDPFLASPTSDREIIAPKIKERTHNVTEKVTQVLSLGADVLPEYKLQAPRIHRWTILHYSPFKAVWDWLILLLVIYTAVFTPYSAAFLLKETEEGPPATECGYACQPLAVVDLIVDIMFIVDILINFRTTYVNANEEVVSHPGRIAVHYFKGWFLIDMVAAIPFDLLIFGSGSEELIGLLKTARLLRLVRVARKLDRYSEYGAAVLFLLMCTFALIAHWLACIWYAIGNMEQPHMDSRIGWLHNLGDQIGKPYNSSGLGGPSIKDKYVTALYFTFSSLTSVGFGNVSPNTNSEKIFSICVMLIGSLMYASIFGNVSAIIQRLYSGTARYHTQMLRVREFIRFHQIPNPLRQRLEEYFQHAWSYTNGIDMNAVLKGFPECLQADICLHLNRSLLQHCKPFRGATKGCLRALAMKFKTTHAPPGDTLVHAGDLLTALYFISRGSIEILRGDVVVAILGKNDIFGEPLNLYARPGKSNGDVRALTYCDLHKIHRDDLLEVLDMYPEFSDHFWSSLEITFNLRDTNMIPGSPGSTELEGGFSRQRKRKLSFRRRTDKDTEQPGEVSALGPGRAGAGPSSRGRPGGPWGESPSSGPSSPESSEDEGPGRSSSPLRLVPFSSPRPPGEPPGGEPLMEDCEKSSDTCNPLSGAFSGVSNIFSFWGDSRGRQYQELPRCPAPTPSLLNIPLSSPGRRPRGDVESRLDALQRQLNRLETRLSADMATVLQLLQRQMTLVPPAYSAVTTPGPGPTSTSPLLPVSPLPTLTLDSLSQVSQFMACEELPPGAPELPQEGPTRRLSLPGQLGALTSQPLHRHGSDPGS

Point of comparison: `Cc1ccc(S(=O)(=O)NC2CC2)s1`, “hERG current change (%, negative = inhibition) at 1uM” value 6.4%. Against it:
- COc1ccc(C2COC(=O)C2=N)c(NC(=O)c2ccc(Cl)cc2)c1 (stereo not drawn) — lower, -4.14%
- CCOC(=O)N1CCN(C(=O)COc2ccc3oc4c(c3c2)CCCC4)CC1 — lower, -14%
- COc1ccc(-c2c(C)oc3c(CN4CCOCC4)c(O)ccc3c2=O)cc1 — higher, 8.15%
- Cc1cnc(NC(=O)CSc2nnc3ncccn23)s1 — higher, 8.75%
- COC(=O)Nc1cc(C)nc2ccccc12 — higher, 12.3%
- Cc1cccc(OCCn2c(=O)n(C)c3ccccc32)c1 — lower, -2.43%
- CCCn1c(C2CCCN2c2nc(-c3cccc(Br)c3)cs2)nc2ccccc21 (stereo not drawn) — higher, 10.7%
- COc1ccccc1C(=O)Nc1ccc2c3c(cccc13)CC2 — higher, 6.43%
- CS(=O)(=O)N(CC(=O)Nc1ccc(F)cc1F)C1CCCCC1 — higher, 7.77%
- COc1ccc(C2(CNC(C)=O)CCOCC2)cc1OC — higher, 14.3%
- OCCNc1nnc(-c2ccccc2)c(-c2ccccc2)n1 — higher, 12.6%
- CCCc1nnc(SCC(=O)N2CCCCC2C)n1CC (stereo not drawn) — lower, 6.21%
- CCCCNC(=O)N1CCN(C(c2ccccc2)c2ccccc2)CC1 — higher, 12.2%
- CCCC1=[N+](CC(=O)c2ccccc2)CCn2cccc21.[Br-] — higher, 15.8%
- CCN(CC)c1ccc(N=Cc2cc(Br)ccc2O)cc1 — higher, 9.23%
- CCOC(=O)Nc1ccc2c(c1)N(C(=O)CN(C)C)c1ccccc1CC2.Cl — higher, 10.9%
- CSCc1ccc(C(=O)NC(C)c2ccc(-n3ccnc3)cc2)cc1 (stereo not drawn) — lower, -10%
- COc1cc(/C=N/O)cc(Br)c1OCc1ccc(Cl)cc1 — lower, 3.09%
- N=c1c(S(=O)(=O)c2ccc(Br)cc2)cc2c(=O)n3ccccc3nc2n1Cc1ccccc1 — higher, 7.3%
- CCN(CCCNC(=O)COc1cc(=O)n(CC)c2ccccc12)Cc1ccccc1 — lower, -4.81%
- CCN(C(=O)CSc1nnc(COc2ccccc2F)n1N)C1CCS(=O)(=O)C1 (stereo not drawn) — higher, 11.1%
- CCOc1ccccc1NC(=O)C(OC(=O)c1ccccc1O)c1ccccc1 (stereo not drawn) — lower, -2.03%
- CN1CCCC(OC(=O)c2cc(F)c(F)c(F)c2F)C1.Cl (stereo not drawn) — higher, 12.3%
- Cc1ccc(S(=O)(=O)N2CCCCC2)cc1NC(=O)COC(=O)c1ccc(=O)[nH]c1 — higher, 11.5%
- COc1ccc(-c2nnn(CC(=O)N(Cc3ccccc3Cl)C(C(=O)NCC3CCCO3)c3ccco3)n2)cc1OC (stereo not drawn) — higher, 15.7%
- Cc1ccc(N2CC(C(=O)N3CCOCC3)CC2=O)cc1Cl (stereo not drawn) — lower, -1.46%
- O=C(Cc1c(F)cccc1Cl)Nc1ccccc1C(=O)N1CCCCC1 — lower, -4.41%
- CCc1ccc(-c2cc(C(=O)NN3CCOCC3)c3ccccc3n2)s1 — lower, 6.18%
- C=CCOc1ccc(/C=N/O)cc1Cl — higher, 14.5%
- COc1ccccc1Oc1c(C)oc2cc(OC(=O)c3ccco3)ccc2c1=O — lower, 3.32%
- CCc1nnc(SCC(=O)Nc2ccc(F)cc2)o1 — higher, 14.8%
- CCOC(=O)Cn1c(=O)oc2cc(S(=O)(=O)N(CCN(C)C)Cc3ccccc3)ccc21 — lower, -0.0088%
- Cl.O=C(CCN1CCCC1)Nc1ccccc1 — lower, 5.05%
- Cc1ccnc(SCCn2c(N3CCN(Cc4ccccc4)CC3)nc3c2c(=O)[nH]c(=O)n3C)n1 — higher, 12.1%
- O=C(NCCc1ccccc1)c1ccc(-c2ccccc2C(F)(F)F)o1 — lower, 2.13%
- COc1ccc(N2CCN(CC(=O)NC(=O)NCc3ccccc3)CC2)cc1 — higher, 18.6%
- N#Cc1c(-n2cccc2C=O)sc2c1CCCC2 — lower, 4.62%
- COc1ccccc1/C=C(/CC(=O)NCc1ccc2c(c1)OCO2)c1nc2ccccc2s1 — higher, 12.2%
- O=C1C=C(NCc2ccc(Cl)c(Cl)c2)CC1 — lower, -0.816%
- O=C(NNS(=O)(=O)c1ccccc1[N+](=O)[O-])c1cc2ccccc2cc1O — higher, 9.77%
- COC(=O)c1ccc(NC(=O)CSc2nnc(-c3ccccc3)n2C)cc1 — higher, 10.7%
- COc1cccc(NC(=O)c2ncc(Cl)c(Cl)c2Cl)c1 — lower, -5.42%
- O=C(COC(=O)c1ccc(NS(=O)(=O)c2ccc3c(c2)OCCO3)cc1)NC1CC1 — lower, 2.56%
- CCOC(=O)N1CCN(S(=O)(=O)N2CCCC(C(=O)NCCCN3CCCCC3CC)C2)CC1 (stereo not drawn) — lower, 6.17%
- O=C(c1ccoc1)N1CCC2(CC1)Oc1ccc(F)cc1C(=O)C21CC(c2cccnc2)=NO1 (stereo not drawn) — lower, -1.27%
- CCOCC(O)CNC(=O)c1ccc(OC2CCN(C(=O)c3cccnc3)CC2)cc1 (stereo not drawn) — higher, 22.1%
- O=C1NCC(COc2ccc(Cl)cc2)O1 (stereo not drawn) — higher, 19.9%
- COc1ccc(CNC(=O)CS(=O)(=O)Cc2nc(-c3cccc(OC)c3)oc2C)cc1 — higher, 6.6%
- O=C(O)C1C2CCC(C2)C1C(=O)NCCC1=CCCCC1 (stereo not drawn) — higher, 10.4%
- CCc1nc(SCc2nc3ccccc3[nH]2)c2oc3ccccc3c2n1 — higher, 14.7%
- O=C(NCc1ccc2c(c1)OCO2)c1cc2n(n1)C(C(F)(F)F)CC(c1ccc3c(c1)OCO3)N2 (stereo not drawn) — higher, 8.69%
- Clc1cc(Br)ccc1OCCOCCN1CCOCC1 — lower, -4.31%
- Cn1cc(CNCc2ccc(-n3cccn3)cc2)c(-c2ccccc2F)n1 — lower, -35.4%
- CCCCn1c(N)c(N(CC(C)C)C(=O)c2cnc(C)cn2)c(=O)[nH]c1=O — lower, 3.1%
- CCOC(=O)c1c(C)[nH]c(C)c1C(=O)CSc1nnc(-c2ccncc2)n1C — higher, 9.26%
- Cc1nc(C)c(C(=O)N2CCCC(C(=O)c3ccc(Cl)cc3C)C2)s1 (stereo not drawn) — lower, 0.189%
- O=C(O)C1CC=CCC1C(=O)NCc1ccc2c(c1)OCO2 (stereo not drawn) — lower, -8.18%
- CCC(Sc1ccc2nnc(-c3cccnc3)n2n1)C(=O)OC (stereo not drawn) — lower, -3.12%
- O=C(Cc1ccc(Br)cc1)NCCc1ccc(Cl)cc1Cl — lower, 1.4%
- O=C(O)c1ccc(C2Nc3ccccc3C(=O)N2Cc2ccccc2)cc1 (stereo not drawn) — higher, 10.7%
- CCOC(=O)C1=NN(C(=O)Cc2ccccc2)C(O)(c2ccc(Cl)cc2)C1 (stereo not drawn) — lower, 0.787%
- CC(C#N)(Cc1ccccc1)Nc1ccccc1 (stereo not drawn) — higher, 12.1%
- O=C(Nc1ccc2c(c1)OCCO2)c1ccc(NC(=O)C2CCCO2)cc1 (stereo not drawn) — higher, 14.1%
- CC(C)c1ccc(NC(=O)C2C3C=CC4(O3)C2C(=O)N(CCN2CCOCC2)C4C(=O)NC2CCCCC2)cc1 (stereo not drawn) — higher, 14.4%
- CSc1ccc(CN2CCN(C(C)C)C(CCO)C2)cc1 (stereo not drawn) — lower, 0.994%
- CCOc1ccc(NC(=S)NC(=O)c2c(Cl)cnn2CC)c([N+](=O)[O-])c1 — higher, 8.49%
- O=C(c1ccc(-c2ccc([N+](=O)[O-])cc2)o1)N1CCN(S(=O)(=O)c2cccs2)CC1 — lower, -3.72%
- COc1ccc(/C=N/n2cnnc2)cc1COc1ccccn1 — lower, -5.84%
- Cl.O=S(=O)(c1ccc2ccccc2c1)N(CC(O)CN1CCOCC1)c1ccccc1 (stereo not drawn) — lower, -21.2%
- CC1CCN(CCCNC(=O)CCCNC(=O)Cn2cnc3sc4c(c3c2=O)CCCC4)CC1 — lower, 3.67%
- COc1ccc(NC(=O)c2cc(C)nc3ccccc23)c(OC)c1 — higher, 7.39%
- Cc1n[nH]c(=S)n1-c1ccccc1 — higher, 14.5%
- C/C(=N\Nc1ccc([N+](=O)[O-])cc1)c1cc2ccccc2o1 — higher, 10.5%
- COc1cc(=O)[nH]c(SCC(=O)Nc2nc3c(s2)CCCC3)n1 — higher, 11.5%
- CCN(CC)CC(=O)Nc1c(Br)ccc2c1OCO2.Cl — higher, 16%
- CN(C)CCC#CC(O)(c1ccccc1)c1ccccc1 — higher, 11.9%
- O=C(O)c1ccc(N=Nc2c(O)[nH]c3ccccc23)cc1 — higher, 13.4%
- CC(=O)Nc1ccc(S(=O)(=O)N2CCC(NC(=O)C(Cc3cccn3C)NC(C)=O)CC2)cc1 (stereo not drawn) — higher, 6.73%
- CCOc1cc(CNc2ccc(O)cc2)cc(Br)c1OCc1ccccc1F — higher, 13.6%
- CN1CCN(S(=O)(=O)c2cccc(C(=O)Nc3nccs3)c2)CC1 — higher, 12.4%
- CCOC(=O)c1nc(C)nc(Sc2n[nH]c(-c3ccccc3)n2)c1C — lower, 0.522%
- CCOC(=O)c1sc(NC(=O)CSc2n[nH]c(C)n2)nc1C — higher, 15.6%
- NC(=O)CC(NC(=O)c1ccccc1)c1ccc(N2CCC(Br)CC2)c([N+](=O)[O-])c1 (stereo not drawn) — lower, 5.81%
- CC(=O)N1N=C2/C(=C/c3ccccc3)CCCC2C1c1ccccc1 (stereo not drawn) — lower, 5.48%
- Cc1nc(C(=O)NNC(=O)Nc2ccc(Cl)cc2)cs1 — lower, 5.79%
- COc1ccc(-c2csc(N(Cc3ccccc3)C(=O)COc3ccc(Cl)cc3)n2)cc1 — lower, 2.58%
- CC(=O)Nc1nonc1-c1nc2ccccc2n1CC1CC1 — lower, 0.848%
- CC1CCN(CCC(=O)Nc2ccccc2)CC1 — lower, 5.54%
- O=C(O)C1CC1(c1ccccc1)c1ccccc1 (stereo not drawn) — higher, 13.6%
